{
  "source": "paper PMC11995724",
  "about": "“Antibiotic target discovery by integrated phenotypic and activity-based profiling of electrophilic fragments” (Cell chemical biology, 2025)",
  "note": "Out of some 3,200 compounds screened, about 75 (2%) showed an effect of 50% or more. Some of the results follow.",
  "data": [
    {"system": "T1, S. aureus MSSA476", "T1 construct": "MSSA476", "design": "species or system S. aureus MSSA476 (TSB) or V. cholerae SAD30 (LB); 384-well bacterial growth screen at 25 uM, OD600 relative to DMSO control", "settings": "relative growth, OD600, TSB; 25 µM; inhibitor", "units": {"% of control remaining": "%"}, "values": [
      {"smiles": "CC(Cl)C(=O)NC(C)(C)c1ccc(F)cc1F", "note": "(stereo not shown) [6-E21, 2-chloro-N-[2-(2,4-difluorophenyl)propan-2-yl]propanamide]", "% of control remaining": 91.8537},
      {"smiles": "CC(Cl)C(=O)N(Cc1nc(C2CCCCCC2)no1)C1CC1", "note": "(stereo not shown) [7-E05, 2-chloro-N-[(3-cycloheptyl-1,2,4-oxadiazol-5-yl)methyl]-N-cyclopropylpropanamide]", "% of control remaining": 87.5981},
      {"smiles": "COc1cccc(NC(=O)C(C)Cl)c1", "note": "(stereo not shown) [6-I03, 2-chloro-N-(3-methoxyphenyl)propanamide]", "% of control remaining": 104.146},
      {"smiles": "Cl.O=C(CCl)NC(c1ccccc1)C1CC1c1ccncc1", "note": "(stereo not shown) [7-F03, 2-chloro-N-{phenyl[2-(pyridin-4-yl)cyclopropyl]methyl}acetamide hydrochloride]", "% of control remaining": 99.843},
      {"smiles": "N#CC(=Cc1ccc([N+](=O)[O-])c(Cl)c1)C(=O)NCc1ccccc1", "note": "[8-D08, N-benzyl-3-(3-chloro-4-nitrophenyl)-2-cyanoprop-2-enamide]", "% of control remaining": 72.0332},
      {"smiles": "C=CC(=O)N(CC)Cc1cccc2c1OCO2", "note": "[3-I05, N-[(1,3-dioxaindan-4-yl)methyl]-N-ethylprop-2-enamide]", "% of control remaining": 107.967},
      {"smiles": "CC(Cl)C(=O)NCc1ccc(C(=O)Nc2ccc(F)cc2)cc1", "note": "(stereo not shown) [7-G19, 4-[(2-chloropropanamido)methyl]-N-(4-fluorophenyl)benzamide]", "% of control remaining": 94.8195},
      {"smiles": "CC(Cl)C(=O)Nc1sc2c(c1C(N)=O)CCC2", "note": "(stereo not shown) [6-A21, 2-(2-chloropropanamido)-4H,5H,6H-cyclopenta[b]thiophene-3-carboxamide]", "% of control remaining": 103.122},
      {"smiles": "COc1cc(C=C(C#N)C(N)=O)ccc1OC(F)F", "note": "[8-P08, 2-cyano-3-[4-(difluoromethoxy)-3-methoxyphenyl]prop-2-enamide]", "% of control remaining": 117.842},
      {"smiles": "Cn1nnc(CN(C(=O)CCl)C2CCCCCCC2)n1", "note": "[5-A16, 2-chloro-N-cyclooctyl-N-[(2-methyl-2H-1,2,3,4-tetrazol-5-yl)methyl]acetamide]", "% of control remaining": 100.182},
      {"smiles": "C=CC(=O)N(Cc1cccc(F)c1F)C1CCCC(F)(F)C1", "note": "(stereo not shown) [1-N13, N-(3,3-difluorocyclohexyl)-N-[(2,3-difluorophenyl)methyl]prop-2-enamide]", "% of control remaining": 101.626},
      {"smiles": "COc1ccc(NC(=O)C(C#N)=Cc2cccs2)cc1", "note": "[8-O14, 2-cyano-N-(4-methoxyphenyl)-3-(thiophen-2-yl)prop-2-enamide]", "% of control remaining": 106.224},
      {"smiles": "Cc1cc(C2(NC(=O)C(C)Cl)CCOCC2)on1", "note": "(stereo not shown) [7-O13, 2-chloro-N-[4-(3-methyl-1,2-oxazol-5-yl)oxan-4-yl]propanamide]", "% of control remaining": 97.0173}
    ]}
  ]
}
